Where a chain is given by its changes, count along the chain named. These are yes or no findings as the source states them, for the method shown. Binding seen in cells or lysates may run through a third protein. Some entries that bind do so weakly or less than the wild type. For part of these data: Sequences can lack the tags named with a protein.

Amino acid sequences for entries named in this document (tags omitted). A change or cut given only in a name is not applied to a line headed by its entry.
UniProt Q9H082: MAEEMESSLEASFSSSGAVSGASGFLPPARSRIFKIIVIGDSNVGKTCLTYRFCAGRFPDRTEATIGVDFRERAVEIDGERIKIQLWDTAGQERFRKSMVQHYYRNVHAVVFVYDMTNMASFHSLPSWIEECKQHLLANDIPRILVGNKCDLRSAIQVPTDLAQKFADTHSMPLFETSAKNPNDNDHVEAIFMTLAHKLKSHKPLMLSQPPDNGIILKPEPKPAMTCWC
UniProt Q9UPT5: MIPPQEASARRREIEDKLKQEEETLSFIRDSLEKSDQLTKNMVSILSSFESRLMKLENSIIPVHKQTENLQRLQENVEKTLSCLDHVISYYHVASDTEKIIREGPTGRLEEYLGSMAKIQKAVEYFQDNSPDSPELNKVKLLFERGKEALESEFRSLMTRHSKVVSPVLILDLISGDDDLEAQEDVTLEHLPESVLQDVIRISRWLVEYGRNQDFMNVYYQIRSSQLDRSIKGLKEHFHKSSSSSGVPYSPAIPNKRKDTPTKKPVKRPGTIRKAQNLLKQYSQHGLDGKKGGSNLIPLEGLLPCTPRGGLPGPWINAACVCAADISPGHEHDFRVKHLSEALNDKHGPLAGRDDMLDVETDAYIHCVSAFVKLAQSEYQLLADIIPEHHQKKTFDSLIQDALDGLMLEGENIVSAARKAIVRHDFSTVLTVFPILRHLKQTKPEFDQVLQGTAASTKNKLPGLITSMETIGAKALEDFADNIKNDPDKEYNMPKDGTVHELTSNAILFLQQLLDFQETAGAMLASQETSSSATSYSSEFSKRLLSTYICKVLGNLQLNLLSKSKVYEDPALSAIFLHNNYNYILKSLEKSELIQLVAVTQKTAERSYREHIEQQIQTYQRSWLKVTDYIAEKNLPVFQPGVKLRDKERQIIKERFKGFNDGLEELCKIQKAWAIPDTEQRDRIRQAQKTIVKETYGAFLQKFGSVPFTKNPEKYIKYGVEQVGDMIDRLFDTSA
UniProt Q8TAG9: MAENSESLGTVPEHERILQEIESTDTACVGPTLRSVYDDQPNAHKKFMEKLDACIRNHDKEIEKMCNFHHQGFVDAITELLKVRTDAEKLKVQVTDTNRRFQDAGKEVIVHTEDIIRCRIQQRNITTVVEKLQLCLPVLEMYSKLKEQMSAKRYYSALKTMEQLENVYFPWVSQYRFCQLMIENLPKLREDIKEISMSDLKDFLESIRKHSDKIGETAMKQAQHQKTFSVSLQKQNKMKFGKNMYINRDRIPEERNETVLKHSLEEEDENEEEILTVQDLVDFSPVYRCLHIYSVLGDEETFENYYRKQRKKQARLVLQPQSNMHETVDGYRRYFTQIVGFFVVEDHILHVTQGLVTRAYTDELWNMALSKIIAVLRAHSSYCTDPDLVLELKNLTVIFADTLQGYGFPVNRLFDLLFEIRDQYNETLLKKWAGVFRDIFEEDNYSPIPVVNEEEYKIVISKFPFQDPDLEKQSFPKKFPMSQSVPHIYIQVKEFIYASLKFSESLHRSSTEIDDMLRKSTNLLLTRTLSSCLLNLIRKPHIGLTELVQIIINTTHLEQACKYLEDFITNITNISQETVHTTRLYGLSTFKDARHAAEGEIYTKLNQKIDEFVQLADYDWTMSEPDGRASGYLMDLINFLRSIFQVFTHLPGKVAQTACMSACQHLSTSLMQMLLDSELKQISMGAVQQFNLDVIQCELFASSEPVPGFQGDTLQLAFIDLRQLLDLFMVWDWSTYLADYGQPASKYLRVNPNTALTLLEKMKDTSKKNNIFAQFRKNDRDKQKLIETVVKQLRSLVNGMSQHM
UniProt O00471: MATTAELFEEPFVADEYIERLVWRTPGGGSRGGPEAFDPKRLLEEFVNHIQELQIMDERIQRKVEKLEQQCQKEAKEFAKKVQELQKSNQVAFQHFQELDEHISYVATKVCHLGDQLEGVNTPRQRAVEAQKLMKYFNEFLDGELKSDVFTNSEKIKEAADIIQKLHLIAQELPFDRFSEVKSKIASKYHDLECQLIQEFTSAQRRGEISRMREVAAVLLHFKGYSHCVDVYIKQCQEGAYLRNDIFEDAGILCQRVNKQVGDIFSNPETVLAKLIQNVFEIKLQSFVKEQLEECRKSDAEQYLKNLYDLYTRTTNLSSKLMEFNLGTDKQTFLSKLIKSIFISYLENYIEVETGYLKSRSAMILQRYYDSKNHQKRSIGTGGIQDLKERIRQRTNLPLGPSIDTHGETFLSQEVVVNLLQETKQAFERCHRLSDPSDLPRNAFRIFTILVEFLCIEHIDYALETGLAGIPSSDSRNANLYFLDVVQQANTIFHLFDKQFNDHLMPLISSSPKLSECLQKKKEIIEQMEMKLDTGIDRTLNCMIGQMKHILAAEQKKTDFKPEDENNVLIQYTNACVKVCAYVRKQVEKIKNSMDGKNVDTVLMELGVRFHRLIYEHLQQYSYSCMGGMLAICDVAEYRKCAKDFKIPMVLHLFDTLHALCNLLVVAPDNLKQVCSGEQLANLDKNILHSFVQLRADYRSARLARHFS

One assay deals with GFP-Rab33b wt (UniProt Q9H082). Description: co-IP; U2OS cells transiently transfected with GFP fusions, lysed (10 mM Tris-HCl pH 7.5, 150 mM NaCl, 0.5 mM EDTA, 0.1% NP-40); lysates 1 h at 4°C with GFP-Trap magnetic beads or non-coupled beads as control; Western blot. In general terms: A western blot detects proteins with antibodies after separation by electrophoresis.
Another assay addresses GFP-Rab33b Q92L (UniProt Q9H082). Described as above.
In another assay the target is GFP-Rab33b T47N (UniProt Q9H082). The description is as above.
The next assay addresses His-Rab33b Q92L (UniProt Q9H082). The assay can be described thus: pull-down; 12 μg purified His-tagged Rab bound to His-Dynabeads, loaded with 0.1 mM GTPγS to activate, incubated with 200 μL precleared U2OS cell lysate 30 min at 4°C; ten washes; eluted with 300 mM imidazole; Western blot; only the target purified.
For another assay, the target named is His-Rab33b T47N (UniProt Q9H082). Described as above.
The next assay deals with His-Rab33b wt (UniProt Q9H082). The description is as above.
For a further assay, the target named is T1, His-Rab9 Q66L (UniProt P51151).
T1 sequence: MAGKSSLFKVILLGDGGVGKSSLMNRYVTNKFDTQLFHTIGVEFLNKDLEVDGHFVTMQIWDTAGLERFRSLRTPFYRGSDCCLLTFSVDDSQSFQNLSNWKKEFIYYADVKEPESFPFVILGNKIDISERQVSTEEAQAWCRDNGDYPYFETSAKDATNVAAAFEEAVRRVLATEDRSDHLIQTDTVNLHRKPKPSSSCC
The assay can be described thus: condition: 12 μg of purified His-tagged protein on beads; pull-down; 12 μg purified His-tagged Rab bound to His-Dynabeads, loaded with 0.1 mM GTPγS to activate, incubated with 200 μL precleared U2OS cell lysate 30 min at 4°C; ten washes; eluted with 300 mM imidazole; Western blot; only the target purified.

Another assay addresses T2, His-Rab9 wt (UniProt P51151).
T2 sequence: T1 sequence with L66Q
The assay is described as above.

On to “Exo70 (endogenous, U2OS cells) (from UniProt Q9UPT5 1-735)”, for which the binding entry with GFP-Rab33b wt and with GFP-Rab33b Q92L was “binds” throughout.
As for “Exoc6 (endogenous, U2OS cells) (from UniProt Q8TAG9 1-804)”, the binding result with GFP-Rab33b wt was “binds”; with GFP-Rab33b T47N, “binds”; with GFP-Rab33b Q92L, “binds”; in the assay with His-Rab33b Q92L, “binds”; with His-Rab33b T47N it was “binds weakly”; with His-Rab33b wt it was “binds”. Also, the binding result in the assay with His-Rab9 Q66L and with His-Rab9 wt was “no binding” throughout.
For the substance “Sec10 (endogenous, U2OS cells) (from UniProt O00471 1-708)”, the binding result with GFP-Rab33b wt and with GFP-Rab33b Q92L was “binds” throughout.

The values are drawn from article PMC9061791.
